These results are taken from paper PMC5865211, “The orphan GPR50 receptor promotes constitutive TGFβ receptor signaling and protects against cancer development” (Nature Communications, 2018).

In the assay the target is T1, TβRI-Renilla luciferase 8 (Rluc8) fusion protein (UniProt P36897 34-503).
T1 construct: TGFβ receptor type I; In the homomer BRET row the second copy of TβRI carried YFP (TβRI-YFP) instead of Rluc8; also called TβRI-Rluc8; source: HEK293T, transfected, in intact cells
T1 sequence (looked up): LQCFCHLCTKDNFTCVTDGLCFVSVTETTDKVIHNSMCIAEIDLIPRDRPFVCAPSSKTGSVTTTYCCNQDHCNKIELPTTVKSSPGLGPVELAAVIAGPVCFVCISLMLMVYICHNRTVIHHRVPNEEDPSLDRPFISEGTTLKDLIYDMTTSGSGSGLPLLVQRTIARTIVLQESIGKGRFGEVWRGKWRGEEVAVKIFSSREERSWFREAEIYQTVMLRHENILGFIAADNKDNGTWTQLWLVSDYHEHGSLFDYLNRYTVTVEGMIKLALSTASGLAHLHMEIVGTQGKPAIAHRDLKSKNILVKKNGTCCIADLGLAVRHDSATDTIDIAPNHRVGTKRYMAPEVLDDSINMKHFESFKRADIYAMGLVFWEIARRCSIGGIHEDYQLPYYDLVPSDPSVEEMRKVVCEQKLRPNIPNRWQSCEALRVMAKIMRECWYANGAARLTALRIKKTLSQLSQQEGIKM
Put plainly: FRET or BRET; BRET donor saturation in intact HEK293T cells; fixed amount of TβRI-Rluc8, increasing amounts of YFP fusion; no TGFβ. The note with it: partners not purified.

B1: GPR50wt-YFP (receptor, human, UniProt Q13585 1-617, looked up)
chain: MGPTLAVPTPYGCIGCKLPQPEYPPALIIFMFCAMVITIVVDLIGNSMVILAVTKNKKLRNSGNIFVVSLSVADMLVAIYPYPLMLHAMSIGGWDLSQLQCQMVGFITGLSVVGSIFNIVAIAINRYCYICHSLQYERIFSVRNTCIYLVITWIMTVLAVLPNMYIGTIEYDPRTYTCIFNYLNNPVFTVTIVCIHFVLPLLIVGFCYVRIWTKVLAARDPAGQNPDNQLAEVRNFLTMFVIFLLFAVCWCPINVLTVLVAVSPKEMAGKIPNWLYLAAYFIAYFNSCLNAVIYGLLNENFRREYWTIFHAMRHPIIFFSGLISDIREMQEARTLARARAHARDQAREQDRAHACPAVEETPMNVRNVPLPGDAAAGHPDRASGHPKPHSRSSSAYRKSASTHHKSVFSHSKAASGHLKPVSGHSKPASGHPKSATVYPKPASVHFKADSVHFKGDSVHFKPDSVHFKPASSNPKPITGHHVSAGSHSKSAFSAATSHPKPTTGHIKPATSHAEPTTADYPKPATTSHPKPTAADNPELSASHCPEIPAIAHPVSDDSDLPESASSPAAGPTKPAASQLESDTIADLPDPTVVTTSTNDYHDVVVIDVEDDPDEMAV
notes: GPR50, human, wild type form with 502TTGH505; also called GPR50wt-yellow fluorescent protein fusion; GPR50-YFP; source: HEK293T, transfected, in intact cells
As for B1, the BRET50 came out at 0.025 ± 0.006.
